Test results taken from PubChem BioAssay AID588795 (National Center for Advancing Translational Sciences (NCATS), 2011).
Several values for one entry are separate records, joined by “and”; a condition that tells them apart may be missing. Identical values can stand only once. About 1,400 (0.36%) of roughly 390,000 compounds were called active. Inconclusive results, whose numbers are uncertain, are shown with a selection of clear calls. Calls follow the shape of the dose curve; as a rule, active = well fitted inhibition curve with a large enough effect; inconclusive = small, poorly fitted or top-dose-only effect; inactive = no such curve, though single readings can be large or run the other way. Potencies of inconclusive entries are doubtful fits and often do not repeat.

biological target: Flap endonuclease 1 (Homo sapiens) (UniProt P39748); experiment: qHTS Assay for the Inhibitors of Human Flap endonuclease 1 (FEN1).; also: nearly all actives have a fitted effect of over 65% in size; details: Recombinant FEN1 flap cleavage, fluorescence, 15 min; series mostly up to 114 µM; activity change, negative = inhibition: at the top concentration
Chain of UniProt P39748 (P39748 whole entry, looked up): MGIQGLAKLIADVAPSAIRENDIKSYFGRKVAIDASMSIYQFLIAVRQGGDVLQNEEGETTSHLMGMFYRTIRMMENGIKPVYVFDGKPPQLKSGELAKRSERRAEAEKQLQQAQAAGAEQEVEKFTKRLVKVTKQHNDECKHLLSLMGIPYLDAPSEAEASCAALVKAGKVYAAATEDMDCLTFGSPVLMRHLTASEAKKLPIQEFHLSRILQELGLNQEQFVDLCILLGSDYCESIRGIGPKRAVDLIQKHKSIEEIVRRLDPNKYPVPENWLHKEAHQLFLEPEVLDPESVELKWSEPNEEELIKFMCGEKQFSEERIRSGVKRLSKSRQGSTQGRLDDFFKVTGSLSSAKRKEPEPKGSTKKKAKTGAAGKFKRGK
How it was run: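 With each library titrated from low to high concentration, compounds met 10 nM FEN1 for 15 min at room temperature before 50 nM substrate was added; readings at 0 and 15 min fed four-parameter Hill curve fits.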
% is scaled to controls: 0 for no effect and ±100 for the full control effect; potency is read from the fitted curve at half-maximal effect; tags tell the direction and shape of the fitted curve.

SMILES	Potency	activity change, negative = inhibition
O=C(N/N=C/c1c(-c2ccccc2)[nH]c2ccccc12)c1cccnc1	inconclusive: 15.8 µM [inhibitor, full curve]	–
O=C(NN1C(=O)/C(=C/C=C/c2ccco2)SC1=S)c1ccncc1	active: 7.08 µM	–
Cc1ccc(C)c(N2CCN(C(=O)CCn3c(=O)c4cccn4c4cccnc43)CC2)c1	–	inactive: -16.7%
CC(C)(C)OC(=O)N1CCC(C(=O)Nc2cccc(C(=O)NCCc3ccccc3)c2)CC1	inconclusive: 79.4 µM [inhibitor, partial curve, poor fit]	–
CSC[C@H](NC(=O)Cc1c(C)c2cc3c(C)c(C)oc3cc2oc1=O)C(=O)N[C@@H](Cc1ccccc1)C(=O)O	–	inactive: 2.4%
CCOc1ccc(C(=O)NCCn2cc(SCC(=O)Nc3ccccc3)c3ccccc32)cc1	–	inactive: -0.646%
CCOC(=O)c1nn(-c2ccc(C)cc2)cc1C(=O)c1ccccc1	inconclusive: 89.1 µM [inhibitor, partial curve, poor fit]	–
Oc1ccc(CN2CCCCC2)c2cccnc12	inconclusive: 35.5 µM [inhibitor, full curve]	–
Cc1ccc(-c2[nH]c(-c3ccccc3)nc2SCC(=O)NCC2CCCO2)cc1 (stereo not given)	inconclusive: 50.1 µM [inhibitor, partial curve, poor fit]	–
COc1ccc(-c2nc(C(=O)NCCCN3CCOCC3)cc3c2[nH]c2ccccc23)cc1OC	inconclusive: 31.6 µM [inhibitor, partial curve]	–
COc1ccc(CNC(=O)c2cc3c(=O)n4ccccc4nc3n(Cc3cccnc3)c2=N)cc1	–	inactive: -10.8%
CCCCc1ccc(NC(=O)CSc2nc3ccccc3nc2N2CCOCC2)cc1	–	inactive: -22.4%
COc1c(N2CCN[C@H](C)C2)c(F)cc2c(=O)c(C(=O)O)cn(C3CC3)c12	–	inactive: -27.5%
O=C(NCCN1CCCCC1)c1ccc(Cn2c(SCc3cccc(F)c3)nc3cccnc32)cc1	–	inactive: -0.897%
Cn1cc(/C=C/c2ccc3ccccc3n2)c2ccccc21	inconclusive: 44.7 µM [inhibitor, partial curve, poor fit]	–
COc1ccc(/C=N/NC(=O)c2[nH]c3ccc(Br)cc3c2-c2ccccc2)c(C(=O)O)c1OC	inconclusive: 50.1 µM [inhibitor, partial curve, poor fit]	–
CCCCCCCCCC[N+](C)(C)CC/C=C1/c2ccccc2Sc2ccc(Cl)cc21	inconclusive: 56.2 µM [inhibitor, partial curve, poor fit]	–
CC(C)n1c(/N=C/c2c[nH]c3ccccc23)nc2ccccc21	inconclusive: 89.1 µM [inhibitor, partial curve, poor fit]	–
COc1ccc(C)cc1NC(=O)CNC(C)C(=O)Nc1cc(Cl)ccc1Cl (stereo not given)	inconclusive: 79.4 µM [inhibitor, partial curve, poor fit]	–
O=C(Nc1ccccc1)c1nc(S(=O)(=O)Cc2ccccc2F)ncc1Cl	inconclusive: 89.1 µM [inhibitor, partial curve, poor fit]	–
COc1ccc(NC(=S)N2CCNC(=O)C2CC(=O)Nc2cccc(Cl)c2C)cc1 (stereo not given)	–	inactive: -3%
O=C(CSc1n[nH]c(=O)[nH]c1=O)N/N=C/C=C/c1ccccc1	–	inactive: 1.68%

SMILES	Potency	activity change, negative = inhibition
CC(=O)NS(=O)(=O)c1ccc(NC(=O)/C=C/c2ccco2)cc1	–	inactive: 7.54%
Cc1ccc(CNC(=O)CSc2nc3c(sc4ccccc43)c(=O)n2CCCN2CCCC2)cc1	inconclusive: 50.1 µM [inhibitor, partial curve, poor fit]	–
COc1nc(-c2ccccc2)ccc1-c1noc(-c2ccccc2Br)n1	–	inactive: 1.99%
COc1ccc(-c2nn3c(-c4cc(-c5ccccc5)n[nH]4)nnc3s2)cc1	inconclusive: 100 µM [inhibitor, single point]	–
CCOC(=O)c1ccc(NS(=O)(=O)c2ccc(SC)cc2)cc1	–	inactive: -16.8%
O=c1cc(-c2ccc(O)c(O)c2)oc2cc(O)c([C@@H]3O[C@H](CO)[C@@H](O)[C@H](O)[C@H]3O)c(O)c12	inconclusive: 28.2 µM [inhibitor, full curve] and inconclusive: 31.6 µM [inhibitor, full curve]	–
CCc1nnc(NC(=O)c2cc(-c3ccco3)nc3ccccc23)s1	inconclusive: 79.4 µM [inhibitor, single point]	–
COc1ccc(-n2c(CN3CCN(c4ccccc4OC)CC3)nc3ccc([N+](=O)[O-])cc3c2=O)c(OC)c1	inconclusive: 8.91 µM [inhibitor, partial curve, poor fit]	–
O=C(COc1ccccc1C(=O)OCC(=O)N1CCOCC1)Nc1ccc(Br)cc1	–	inactive: -30.7%
Clc1ccc(-c2nnc(-c3ccccc3Cl)o2)cc1	inconclusive: 89.1 µM [inhibitor, partial curve, poor fit]	–
CCNc1ccc(Br)cc(C(=O)/C=C/c2ccc3c(c2)OCO3)c1=O	inconclusive: 56.2 µM [inhibitor, partial curve]	–
COC(=O)C(NC(=O)CNS(=O)(=O)c1ccc(Br)cc1)c1ccccc1 (stereo not given)	–	inactive: -2.39%
Cc1cccc(-c2nc(CSCC(=O)NCCc3ccc(Cl)cc3)c(C)o2)c1	inconclusive: 31.6 µM [inhibitor, partial curve, poor fit]	–
COc1ccccc1N1CC(C(=O)Nc2ccc(S(=O)(=O)N3CCOCC3)cc2)CC1=O (stereo not given)	inconclusive: 89.1 µM [inhibitor, partial curve, poor fit]	–
O=C(/C=C/c1ccco1)N(Cc1ccc(Cl)cc1)C1CCS(=O)(=O)C1 (stereo not given)	–	inactive: -2.06%
Cn1c(COc2cccc3ccccc23)nnc1SCC(=O)OC1CCCCC1	inconclusive: 89.1 µM [inhibitor, partial curve, poor fit]	–
Cc1cccc(N2CCN(C(C)C(=O)N3CCc4ccccc43)CC2)c1C (stereo not given)	inconclusive: 89.1 µM [inhibitor, partial curve, poor fit]	–
Clc1ccc(OCc2nc3ccccc3n2Cc2ccccc2)c(Cl)c1	inconclusive: 89.1 µM [inhibitor, partial curve, poor fit]	–
COc1ccc(CCNC(=O)c2nnn(CC(=O)Nc3ccc(C)cc3C)c2N)cc1OC	–	inactive: -0.194%
O=[N+]([O-])c1cccnc1S(=O)(=O)c1ccccc1	–	inactive: 11.9%
Cc1ccc(NC(=S)NNC(C)(C)C)cc1	–	inactive: -7.91%
O=C(Nc1ccc(F)c(F)c1)c1oc2ccccc2c1NC(=O)C1CCCO1 (stereo not given)	inconclusive: 50.1 µM [inhibitor, partial curve, poor fit]	–

SMILES	Potency	activity change, negative = inhibition
CC1(OC(=O)c2cccs2)C(=O)C=C2C=C3CCCN3C=C2C1=O (stereo not given)	inconclusive: 25.1 µM [inhibitor, partial curve]	–
CN(C(=O)c1ccc2c(c1)N(Cc1ccccc1F)C(=O)c1ccccc1S2)C1CCCCC1	inconclusive: 50.1 µM [inhibitor, partial curve, poor fit]	–
CC1(C)Cc2c(C#N)c(N3CCN(C(=O)c4ccco4)CC3)nc(-c3ccco3)c2CS1	inconclusive: 79.4 µM [inhibitor, partial curve, poor fit]	–
COc1ccc2oc(C(=O)Nc3nc(-c4ccccn4)cs3)c(C)c2c1	–	inactive: -3.82%
O=C(NC1CCCC1)C(c1ccccn1)N(C(=O)c1csnn1)C1CCCCC1 (stereo not given)	–	inactive: -5.25%
O=C(Cc1cc(=O)[nH][nH]1)N/N=C/C=C/c1ccccc1	inconclusive: 89.1 µM [inhibitor, single point]	–
Cc1ccc2oc(=O)c3cc(C(=O)NCCCN4CCN(C)CC4)sc3c2c1	inconclusive: 50.1 µM [inhibitor, partial curve, poor fit]	–
COc1ccc(NC(=O)c2c(N)c(C(=O)c3ccc(C)cc3)n3ccccc23)cc1OC	inconclusive: 100 µM [inhibitor, single point]	–
CC1CCC(N2CC(=O)N(C3CCCC3)C(c3ccc(Cl)cc3)C2=O)CC1 (stereo not given)	–	inactive: -0.838%
COc1cc(-c2nc(-c3ccccc3)c(-c3cccs3)[nH]2)cc(OC)c1O	inconclusive: 89.1 µM [inhibitor, single point]	–
COc1cc(OC)c(/C=C/c2cc3ccccc3c[n+]2C)c(OC)c1	inconclusive: 50.1 µM [inhibitor, partial curve]	–
O=C(Nc1cccc(F)c1)c1ccc2c(c1)OCO2	–	inactive: -2.18%
Cc1ccc(NC(=O)CCc2nc3sc4c(c3c(=O)[nH]2)CCCC4)nc1	inconclusive: 79.4 µM [inhibitor, partial curve, poor fit]	–
CC(C)(C)OC(=O)NCCCC[C@H](NC(=O)c1nc[nH]c1C(=O)NC1CCN(C(=O)OC(C)(C)C)CC1)C(=O)OC(C)(C)C	inconclusive: 39.8 µM [inhibitor, partial curve, poor fit]	–
O=C(COc1ccc2c(c1)oc(=O)c1ccccc12)NCCCN1CCOCC1	inconclusive: 89.1 µM [inhibitor, single point]	–
Cc1cc2nc3c(=O)[nH]c(=O)[nH]c3nc2c([N+](=O)[O-])c1N	active: 44.7 µM	–
O=C(Nc1ccc(OC(F)F)cc1)c1nc(SCc2ccccc2F)ncc1Cl	–	inactive: -1.35%
Cc1ccc(NS(=O)(=O)c2ccc3c4c(cccc24)C(=O)N3)c(C)c1	inconclusive: 79.4 µM [inhibitor, partial curve, poor fit]	–
Cc1ccc(F)c(C2C3C=CCCC3(C)C(=O)N2Cc2ccccc2)c1 (stereo not given)	–	inactive: -10.2%
CC1=CC(C)(C)N2C(=O)C(=Nc3ccc(O)cc3)c3cccc1c32	inconclusive: 2.24 µM [inhibitor, partial curve, poor fit]	–
Nc1c(-c2ccccc2)c(CSc2nc3ccccc3[nH]2)nn1-c1ccc(C(=O)O)cc1	inconclusive: 89.1 µM [inhibitor, single point]	–
